# According to publication PMC4336329 (PLoS ONE, 2015):
# The whole screen tested about 310,000 compounds, of which about 2,200 (0.71%) showed an effect of 50% or more. Effects have a minus sign here. The list shows a part of the results.
# Biological target: human ether-à-go-go-related gene (hERG) potassium channel (human, UniProt Q12809)
# Test: primary screen, population patch clamp on CHO cells stably expressing hERG
# human ether-à-go-go-related gene (hERG) potassium channel, sequence (Q12809 whole entry, looked up): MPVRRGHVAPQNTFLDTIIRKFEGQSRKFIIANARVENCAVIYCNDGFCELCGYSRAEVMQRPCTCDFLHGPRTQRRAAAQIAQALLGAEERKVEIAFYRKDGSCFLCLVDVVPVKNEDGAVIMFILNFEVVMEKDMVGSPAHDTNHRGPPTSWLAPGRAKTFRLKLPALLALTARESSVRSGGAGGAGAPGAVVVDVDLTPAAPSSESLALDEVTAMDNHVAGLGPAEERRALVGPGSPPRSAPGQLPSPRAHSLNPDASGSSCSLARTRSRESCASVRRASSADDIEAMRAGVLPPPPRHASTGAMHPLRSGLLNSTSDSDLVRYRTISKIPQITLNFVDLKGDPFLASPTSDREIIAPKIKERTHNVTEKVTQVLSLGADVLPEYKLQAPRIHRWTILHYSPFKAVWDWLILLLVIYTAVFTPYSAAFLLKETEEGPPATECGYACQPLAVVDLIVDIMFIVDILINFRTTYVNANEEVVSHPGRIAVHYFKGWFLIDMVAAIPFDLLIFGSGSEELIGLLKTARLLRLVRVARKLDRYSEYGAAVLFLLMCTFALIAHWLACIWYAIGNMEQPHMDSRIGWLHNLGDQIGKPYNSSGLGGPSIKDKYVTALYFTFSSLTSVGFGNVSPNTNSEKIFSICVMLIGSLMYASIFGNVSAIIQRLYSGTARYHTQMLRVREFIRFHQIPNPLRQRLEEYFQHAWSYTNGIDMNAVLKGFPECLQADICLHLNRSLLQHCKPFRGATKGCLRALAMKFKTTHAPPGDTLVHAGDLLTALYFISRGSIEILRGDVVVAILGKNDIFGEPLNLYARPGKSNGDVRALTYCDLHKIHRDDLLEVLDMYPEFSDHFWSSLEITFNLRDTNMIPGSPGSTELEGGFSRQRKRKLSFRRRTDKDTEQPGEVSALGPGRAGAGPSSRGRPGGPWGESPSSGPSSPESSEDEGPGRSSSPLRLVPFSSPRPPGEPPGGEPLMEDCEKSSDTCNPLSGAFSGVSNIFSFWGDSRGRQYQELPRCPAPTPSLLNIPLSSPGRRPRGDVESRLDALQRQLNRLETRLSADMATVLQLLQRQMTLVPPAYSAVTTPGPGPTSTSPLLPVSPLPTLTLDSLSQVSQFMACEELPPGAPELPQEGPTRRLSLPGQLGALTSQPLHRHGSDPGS
row,SMILES,"hERG current change (%, negative = inhibition) at 1uM"
1,Cc1c(C(=O)Nc2ccccc2C(=O)N2CCCC2)cccc1[N+](=O)[O-],14.9%
2,Cl.c1ccc2c(c1)oc1c(NCCCN3CCOCC3)ncnc12,0.229%
3,CC(C)Oc1cc(NC(=O)CSCC(=O)Nc2cccc(C(F)(F)F)c2)c(Cl)cc1Cl,9.83%
4,CCCc1nnc(NC(=O)CCC(=O)N2CCN(c3ccccn3)CC2)s1,-6.55%
5,COc1ccc(-c2coc3cc(OC4OC(CO)C(O)C(O)C4O)cc(O)c3c2=O)cc1 (stereo not shown),7.95%
6,CCCCCCOC(=O)C1=C(C)NC(=O)NC1c1ccc2c(c1)OCO2 (stereo not shown),2.22%
7,O=S(=O)(N/N=C1\CCCc2ccccc21)c1ccccc1,5.16%
8,Cc1cc(C)nc(NS(=O)(=O)c2ccccc2)n1,12.5%
9,O=C(OCC(=O)N1CCCC1)c1c2c(nc3ccccc13)CCCCC2,9.48%
10,COC(=O)CNC(=O)C(Cc1ccccc1)NS(=O)(=O)c1ccc2c(c1)c(=O)n(C)c(=O)n2C (stereo not shown),9.49%
11,COc1ccc(CCNC/C=C/c2ccccc2)cc1.Cl,-5.16%
12,O=c1cc(CN2CCN(Cc3ccc(F)cc3)C(CCO)C2)[nH]c2ccccc12 (stereo not shown),-15.5%
13,CCOc1c2ccccc2nn1CCOC,8.94%
14,Cc1ccccc1OCCC(=O)NCCc1ccc(S(N)(=O)=O)cc1,14.6%
15,CCOC(=O)c1sc(=S)n(-c2ccccc2Cl)c1C,13.1%
16,Cc1cccc(NC(=O)CNCC(=O)Nc2cccc(C)c2C)c1C.Cl,4.83%
17,COc1ccc2[nH]cc(CCNC(=O)C3CCCNC3=O)c2c1 (stereo not shown),10.6%
18,Cc1cc(O)ccc1N/C=C1\CCCC1=O,13%
19,Cc1ccc(N(CC(=O)NCc2ccco2)C(=O)CCC(=O)Nc2ccccn2)c(C)c1,8.23%
20,NC(=O)CS(=O)(=O)c1ccc(Cl)cc1,18.9%
21,CCC(C)(C(=O)NC1CCCC1)N(C(=O)CNC(C)=O)c1ccc(C)cc1 (stereo not shown),9.08%
22,O=C(C1CCCN1S(=O)(=O)c1ccc(Cl)cc1)N1CCCCC1 (stereo not shown),5.42%
23,CCCN(CCC)C(=O)CCSCCC(=O)N(CCC)CCC,10.6%

row,SMILES,"hERG current change (%, negative = inhibition) at 1uM"
1,CC(C)C(OC(=O)CN1C(=O)COc2ccccc21)C(=O)NC1CCCC1 (stereo not shown),15.9%
2,COc1ccc(Cl)cc1S(=O)(=O)NCCCn1ccnc1,15.8%
3,c1ccc(CNc2nc(N3CCOCC3)nc(N3CCOCC3)n2)cc1,3.44%
4,CN1CCc2c(sc3nc(SCC(=O)N4CCOCC4)n(-c4ccc(Cl)cc4)c(=O)c23)C1,13.5%
5,O=C1CC(C(=O)Nc2cccc(F)c2)n2ncnc2N1 (stereo not shown),4.28%
6,Cc1cc(C)n2nc(C(=O)N3CCOCC3)nc2n1,15.3%
7,Cc1cc(C)c(C)c(OCC(=O)O/N=C(\N)c2cccnc2)c1,10.1%
8,Cc1cc(C(F)(F)F)nn1CC(=O)N1CCOCC1,-3.74%
9,CCCCCn1c(=O)c(C(=O)OCC)c(O)c2ccccc21,-4.24%
10,CCOc1cc(N2CCOCC2)c(OCC)cc1NC(=O)COc1cccc(CC)c1,16.6%
11,CC(=O)Nc1ccccc1C(=O)C(=O)Nc1cccc(C(=O)NC2CC2)c1,12.4%
12,CC(C)CN1CCN=C1N(C)C,16%
13,COc1ccccc1/C=C/C(=O)NNC(=O)c1cc(C)oc1C,3.97%
14,O=C1NC(=O)C(Cc2cccs2)C(=O)N1,8.03%
15,CCOC(=O)c1c(C)oc(NC(=O)CCl)c1C(=O)OCC,10%
16,CCN(CC(=O)Nc1ccc(OC)cc1)C(=O)CCc1nc2ccccc2c(=O)[nH]1,5.72%
17,O=C(Nc1ccccc1-c1ccccc1)NC1CCN(C(=O)N2CCOCC2)CC1,7.99%
18,COc1ccc(C(=O)N2CCN(S(=O)(=O)c3ccc(C)cc3)CC2)cc1S(=O)(=O)N1CCOCC1,4.42%
19,COc1ccccc1N1CCN(CCCNC(=O)C2CCCN(c3ncnc4c3nc3n4CCCCC3)C2)CC1 (stereo not shown),10.3%
20,O=C(N/C(=C/c1cccs1)C(=O)N1CCCC1)c1ccccc1,14.4%
21,CCCCc1nc(NCC2CCCO2)c(C#N)c2c1COC(C)(C)C2 (stereo not shown),6.42%
22,CCN(CC)CCN1C(=O)C2C(C(=O)Nc3ccc(Br)cc3)C3C=CC2(O3)C1C(=O)NC1CCCCC1 (stereo not shown),5.12%
23,N#Cc1ncn(-c2ccc(Oc3ccccc3)cc2)c1N,0.513%
